Source: paper PMC4336329 (PLoS ONE, 2015)
Among all 310,000 compounds or so, about 14,000 (4.5%) showed an effect of 50% or more. The effect is printed as a negative number. The list shows a part of the results.

The molecules below were run against human ether-à-go-go-related gene (hERG) potassium channel (human, UniProt Q12809) (assay: primary screen, population patch clamp on CHO cells stably expressing hERG).
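Also: peak tail current of the secondary pulse compared with the same well before compound.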

Sequence of human ether-à-go-go-related gene (hERG) potassium channel (Q12809 whole entry, looked up): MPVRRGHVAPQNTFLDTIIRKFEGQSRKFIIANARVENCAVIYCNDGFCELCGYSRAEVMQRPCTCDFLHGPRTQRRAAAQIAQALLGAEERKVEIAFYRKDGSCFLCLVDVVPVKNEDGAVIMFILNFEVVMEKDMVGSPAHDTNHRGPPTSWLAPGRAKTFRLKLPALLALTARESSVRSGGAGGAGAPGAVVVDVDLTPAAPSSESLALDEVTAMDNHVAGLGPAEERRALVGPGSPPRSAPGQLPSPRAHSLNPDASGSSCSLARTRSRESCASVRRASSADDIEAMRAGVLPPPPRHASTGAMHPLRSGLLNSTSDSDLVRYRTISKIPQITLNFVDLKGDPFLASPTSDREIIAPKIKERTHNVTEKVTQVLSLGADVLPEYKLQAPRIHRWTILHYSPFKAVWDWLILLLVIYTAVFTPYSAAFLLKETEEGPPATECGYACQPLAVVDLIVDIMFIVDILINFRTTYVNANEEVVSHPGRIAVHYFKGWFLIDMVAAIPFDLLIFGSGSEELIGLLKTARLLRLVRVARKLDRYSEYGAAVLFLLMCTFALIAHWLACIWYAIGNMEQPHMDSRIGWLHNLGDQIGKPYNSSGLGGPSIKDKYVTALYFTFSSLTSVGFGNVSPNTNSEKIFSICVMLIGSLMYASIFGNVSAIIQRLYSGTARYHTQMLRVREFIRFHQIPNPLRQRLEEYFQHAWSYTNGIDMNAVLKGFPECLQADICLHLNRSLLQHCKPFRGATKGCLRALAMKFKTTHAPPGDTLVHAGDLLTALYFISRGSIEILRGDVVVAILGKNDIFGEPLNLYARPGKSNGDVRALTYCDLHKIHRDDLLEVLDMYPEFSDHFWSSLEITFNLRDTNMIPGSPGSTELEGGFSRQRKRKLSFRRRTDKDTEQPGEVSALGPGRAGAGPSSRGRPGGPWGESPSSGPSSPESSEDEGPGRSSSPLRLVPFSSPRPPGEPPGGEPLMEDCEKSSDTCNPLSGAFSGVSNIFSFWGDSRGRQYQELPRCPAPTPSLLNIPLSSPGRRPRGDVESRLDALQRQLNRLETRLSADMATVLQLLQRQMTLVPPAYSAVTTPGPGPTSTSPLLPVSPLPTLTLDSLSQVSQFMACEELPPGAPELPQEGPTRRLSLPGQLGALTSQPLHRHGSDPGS

| SMILES | hERG current change (%, negative = inhibition) at 10uM [%] |
| --- | --- |
| O=C(Nc1ccc(NC(=O)C2CC2)cn1)c1ccccc1 | 2.98 |
| CC[C@@H](C)[C@H](CN[C@H](CNC)C(C)C)NC[C@@H](C)c1ccc(CC(C)C)cc1 | -10.4 |
| CCC1(C)OC(=O)N(CCCn2ccnc2C)C1(C)O (stereo not shown) | -8.95 |
| COc1cc2c(cc1OC)-c1cc(NC3CC3)nc(=O)n1CC2 | -24.8 |
| c1ccc(-c2ccnc3nc(N4CCN(c5ccccc5)CC4)nn23)cc1 | -41.5 |
| CC1CN(C(=O)CCC(=O)NCCCc2ccccc2)c2ccccc2O1 (stereo not shown) | -33.8 |
| Nc1nccc(/C=C/c2c(Cl)cccc2Cl)n1 | 10 |
| Cc1cccc(N2CCN(Cc3cn(C)nc3-c3ccccc3F)CC2)n1 | -34.4 |
| CC(=O)NCCC(=O)Nc1cc(S(=O)(=O)N2CCOCC2)ccc1N1CCOCC1 | 30.9 |
| N/C(=N\OC(=O)c1ccc(Cl)cc1Cl)c1ccccc1 | 3.8 |
| CSc1ncc(CN2CCCC(C(=O)c3ccccc3SC)C2)cn1 (stereo not shown) | -65.1 |
| O=C(COC(=O)c1cccnc1Nc1ccccc1F)NCc1ccc2c(c1)OCO2 | -12 |
| CC12CCC(=O)N1C(C(=O)N1CCN(c3cccc(Cl)c3)CC1)CS2 (stereo not shown) | -19.4 |
| Cc1nc(NC(=O)COc2ccccc2)sc1C(=O)Nc1ccccc1 | -1.5 |
| O=C(Nc1nnc(SCc2cccnc2)s1)C1CC(=O)N(c2ccccc2)C1 (stereo not shown) | 8.12 |
| CCOc1c2ccc(C(=O)NCc3ccc(OC(F)(F)F)cc3)cc2nn1C | -23.1 |
| CCOC(=O)C(C(=O)OCC)c1c([N+](=O)[O-])c(=O)n2c3c(cccc13)CCC2 | -4.13 |
| O=S(=O)(Nc1ccc(Cl)c(Cl)c1)N1CCOCC1 | 6.44 |
| O=C(NC1CCN(C(=O)c2ccccc2Br)CC1)c1ccccc1 | -14.5 |
| N#CCc1ccc(NC(=O)CSc2nnc(C3CC3)n2C2CC2)cc1 | 9.18 |

| SMILES | hERG current change (%, negative = inhibition) at 10uM [%] |
| --- | --- |
| O=C(N/N=C/c1c(F)cccc1Cl)c1ccc(Cn2cc(Br)cn2)o1 | -15.6 |
| Cc1c(C)c2ccc(O)c(CN3CCCC3)c2oc1=O | 20.8 |
| Cc1cc(C)nc(SCc2cc(=O)c(OC(=O)c3ccco3)co2)n1 | 9.82 |
| Cc1ccc(NC(=S)NCC2CCN(C(C)c3ccccc3)C2)cc1 (stereo not shown) | -57.5 |
| COCO/C=C(\NC(C)=O)c1ccccc1 | 15 |
| Cc1ccc(-n2cccn2)c(CN2CCCC(C(=O)c3sccc3C)C2)c1 (stereo not shown) | -85.4 |
| CCn1c(SCC(=O)Nc2ccc(S(=O)(=O)Nc3onc(C)c3C)cc2)nnc1-c1ccccc1 | -10.2 |
| COC(=O)COc1ccc(S(=O)(=O)N2CCCCC2)cc1[N+](=O)[O-] | 11.6 |
| O=C(CSc1nnc2ccccn12)NNC(=O)c1ccc(Br)cc1 | 17.9 |
| Cc1ccc(Oc2ccc(N)cc2)cc1.Cl | -6.53 |
| O=C(NC(=S)Nc1ccc2oc(=O)ccc2c1)c1cccc(F)c1 | 15.3 |
| CC(c1nc2ccccc2c(=O)[nH]1)N1CCN(C)CC1 (stereo not shown) | -5.2 |
| COc1ccc(C)cc1N(CC(=O)Nc1cccnc1)S(=O)(=O)c1ccc(C)cc1 | 0.795 |
| CCCCCCCC(=O)OCC(O)CO (stereo not shown) | -4.64 |
| O=C1CC(NS(=O)(=O)c2ccccc2)CN1c1ccc2c(c1)OCCO2 (stereo not shown) | -1.28 |
| COc1ccc(C)cc1NC(=O)CCCN1C(=O)NC(C)(C)C1=O | 6.12 |
| CCN(CC)CCNC(=O)c1ccc(NC(=O)c2ccc(S(=O)(=O)N3CCCCCC3)cc2)cc1 | 10.9 |
| CSc1ccc(/C=N/NC(=O)c2cccc(Cl)c2)cc1 | -1.49 |
| O=C(N/N=C(\Cc1ncc[nH]1)c1ccccc1)c1ccncc1 | 9.02 |
| CC(CN1CCCCC1)NC(=O)c1cccs1 (stereo not shown) | -1.8 |

| SMILES | hERG current change (%, negative = inhibition) at 10uM [%] |
| --- | --- |
| CC(C)CCNC(=O)C(=O)Nc1ccc2c(c1)N(S(=O)(=O)c1cccs1)CCC2 | 9.19 |
| Cn1c(NCCO)nc2c1c(=O)n(Cc1ccc(F)cc1)c(=O)n2C | 7.98 |
| CC(=O)Nc1ccc(S(=O)(=O)NCC(=O)OCc2ccccc2)cc1 | -3.27 |
| CCN(CC)C(=S)SCC(=O)c1c(C)[nH]c2ccccc12 | 4.2 |
| Cl.O=C(c1ccc(Cl)c(S(=O)(=O)N2CCCC2)c1)N1CCN(c2ccc(F)cc2)CC1 | -58.5 |
| CSc1ccccc1C(=O)NCc1ccc(C)cc1 | -3.63 |
| COc1cc(OC)c(C(=O)OCN2C(=O)c3ccccc3C2=O)cc1OC | -19.8 |
| c1ccc(COc2ccc(CNn3cnnc3)cc2)cc1 | 9.48 |
| CCc1c(C(=O)O)[nH]c2ccc(Br)cc12 | 7.89 |
| O=c1ccc(/C=C/c2ccccc2)nn1Cc1ccccc1Cl | 0.487 |
| COc1ccc(NCN2C(=O)C3C4C=CC(C4)C3C2=O)cc1 (stereo not shown) | 16.2 |
| O=C1c2cccc3cccc(c23)C(=O)N1CCCc1n[nH]c(=S)n1-c1ccccc1 | 16.6 |
| CC(NC(=O)CCC(=O)c1ccc(F)cc1)C1CC2CCC1C2 (stereo not shown) | -9.78 |
| O=C(COc1ccc2c(c1)CCC2)N1CCc2ccccc21 | 15.4 |
| COc1cccc(Nc2ncccc2C(=O)O)c1 | 9.1 |
| COc1cc(OC)c(/C=N/n2c(C3CCCCC3)n[nH]c2=S)c(OC)c1 | 22.6 |
| O=C(N/N=C/c1cccnc1)c1cccc(S(=O)(=O)Nc2cccc(Cl)c2)c1 | 10.9 |
| COC(=O)c1ccc(CNC(=O)COC(=O)CCC2CCCC2)cc1 | 7.42 |
